Measurements: article PMC7819943, “Rice protein-binding microarrays: a tool to detect cis-acting elements near promoter regions in rice”
The other results are listed elsewhere or left out.

target: T1, OsWOX13 (Oryza sativa, UniProt Q5QMM3 1-267); assay: protein-binding microarray (RPBM); PBS, 2% BSA, 51.3 ng/ul salmon testes DNA, 50 uM zinc acetate, 200 nM TF, 25 C, 1 h; high values mean tight binding; settings: protein: recombinant; tags: N-terminal polyhistidine and DsRed monomer fusion (pET32a); label: CyDye5-dUTP incorporated in the synthesized complementary strand; 3' TTTTT single-stranded linker to array surface; dsDNA, one strand shown
T1 sequence: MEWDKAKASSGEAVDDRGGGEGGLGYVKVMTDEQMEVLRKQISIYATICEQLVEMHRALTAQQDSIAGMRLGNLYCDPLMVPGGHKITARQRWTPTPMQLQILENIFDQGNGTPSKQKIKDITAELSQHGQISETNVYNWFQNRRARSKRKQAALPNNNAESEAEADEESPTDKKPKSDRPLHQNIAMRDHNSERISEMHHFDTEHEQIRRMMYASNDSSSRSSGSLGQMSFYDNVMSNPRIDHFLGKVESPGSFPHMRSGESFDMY
How it was run: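 For the binding signal, per-feature fluorescence intensity was read in arbitrary units on an Axon 4000B scanner. Before scanning, a 2% BSA-blocked custom Agilent array made double-stranded with Cy5-dUTP was washed after 1 h at 25 °C with 200 nM protein and 50 µM zinc acetate. The proteins were Ni–NTA-purified transcription factors with N-terminal polyhistidine and DsRed fusions, expressed in E. coli BL21-CodonPlus.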

**Q.** How did the binding signal turn out when “TTATGATTGCCAATCTTATTTCTTGAGTATTTCTGTTCAACGGAGTCACCTAGTGCAG” was run?
**A.** 45300 fluorescence intensity (a.u.)

**Q.** Which binding signal does the source give for “TTGATTAATCACATGTTAATGAATGCAACTAAAAGCCTACCGGAGTCACCTAGTGCAG” here?
**A.** 33000 fluorescence intensity (a.u.)

**Q.** For “TTAAATTTTATTATTTAACTGACATGTGGGCTCACATATTCGGAGTCACCTAGTGCAG”, which binding signal is on record?
**A.** 31100 fluorescence intensity (a.u.)

**Q.** With “GAAATTGGCAGTTTGTTTGCCTGTGTTGGCACCTACACAACGGAGTCACCTAGTGCAG” as the sequence, how does the binding signal read?
**A.** 12500 fluorescence intensity (a.u.)

**Q.** With “TTGATTTGATTGGGTTGGTTCCAAATTATATTCTGTGATTCGGAGTCACCTAGTGCAG” as the sequence, how does the binding signal read?
**A.** 57600 fluorescence intensity (a.u.)

**Q.** For “GCAGATAAATAGGTGATTTTGGTGAACCAACATTGCATTGCGGAGTCACCTAGTGCAG”, which binding signal is on record?
**A.** 8560 fluorescence intensity (a.u.)

**Q.** “CGTTGACAAGTATAGGGACCTCAGATGAACTTATTCCCCACGGAGTCACCTAGTGCAG” was tested. Which binding signal did it give?
**A.** 5160 fluorescence intensity (a.u.)

**Q.** For “GTGATCACCCTTTGATTGACCCGCACCCGCATCCCTTTCCCGGAGTCACCTAGTGCAG”, which binding signal is on record?
**A.** 35500 fluorescence intensity (a.u.)

**Q.** “TATTATTAATAATTTAAGGGTTAGGTGATCTAATAAGTTACGGAGTCACCTAGTGCAG” was tested. Which binding signal did it give?
**A.** 3290 fluorescence intensity (a.u.)

**Q.** Which binding signal does the source give for “GTCAAATTGCCATGTCAGCAAAAGCCGCTTCCAAAACCATCGGAGTCACCTAGTGCAG” here?
**A.** 6480 fluorescence intensity (a.u.)

**Q.** “GCTGATGACAGGAGTAAGGAGGTGGCACAATCGGGACCAACGGAGTCACCTAGTGCAG” was tested. Which binding signal did it give?
**A.** 6380 fluorescence intensity (a.u.)

**Q.** With “TTATAATAATTAAAACTCAATCAATCATACGTTAATACCACGGAGTCACCTAGTGCAG” as the sequence, how does the binding signal read?
**A.** 15600 fluorescence intensity (a.u.)

**Q.** How did the binding signal turn out when “CCTGACTGCCTACACATTCTGGGCTGCAAAGAGGGGCCGTCGGAGTCACCTAGTGCAG” was run?
**A.** 12400 fluorescence intensity (a.u.)

**Q.** With “TAATAATTTTGTGCGATAAATGAATATAGTTCCAGTAATTCGGAGTCACCTAGTGCAG” as the sequence, how does the binding signal read?
**A.** 10800 fluorescence intensity (a.u.)

**Q.** With “TGTTGGTTAAGTAATTAATTAAGTCTTGGCTATTGGCGATCGGAGTCACCTAGTGCAG” as the sequence, how does the binding signal read?
**A.** 13500 fluorescence intensity (a.u.)

**Q.** How did the binding signal turn out when “TTCTGATTGATGTCAGGAGTGGCGTGCGTACCAGTGCTGTCGGAGTCACCTAGTGCAG” was run?
**A.** 58100 fluorescence intensity (a.u.)

**Q.** For “GGCCTGATTAGAACAGCACGAGCCATATGGATTTAAGCAGCGGAGTCACCTAGTGCAG”, which binding signal is on record?
**A.** 22000 fluorescence intensity (a.u.)

**Q.** For “ACGCCAAAATTAGAAATTTGAAGAAATTAAAACGATGCGACGGAGTCACCTAGTGCAG”, which binding signal is on record?
**A.** 7980 fluorescence intensity (a.u.)

**Q.** For “CAATAAATTTTCTTGAAAGATTGTCACAGCCGCTACACTACGGAGTCACCTAGTGCAG”, which binding signal is on record?
**A.** 11300 fluorescence intensity (a.u.)

**Q.** For “TTTTGTTCACTGATTTATGATTTATTTAAGAAGAGAGAGACGGAGTCACCTAGTGCAG”, which binding signal is on record?
**A.** 19600 fluorescence intensity (a.u.)

**Q.** For “TGTAAATGATGAAGAGTGCAAGCATCTAATTTTCTCCTCTCGGAGTCACCTAGTGCAG”, which binding signal is on record?
**A.** 6140 fluorescence intensity (a.u.)

**Q.** How did the binding signal turn out when “CCGTTTGTCCTTAATTGCAATTAACAATGCGGGAGTACAACGGAGTCACCTAGTGCAG” was run?
**A.** 39700 fluorescence intensity (a.u.)

**Q.** “CAAGATTATTTTAACTCTTTTGAAGGAAAGATAAAAGCTTCGGAGTCACCTAGTGCAG” was tested. Which binding signal did it give?
**A.** 3880 fluorescence intensity (a.u.)

**Q.** Which binding signal does the source give for “CCGTGACAGAACAACACACGACGGCAGCCAGAGCCAGCCGCGGAGTCACCTAGTGCAG” here?
**A.** 9100 fluorescence intensity (a.u.)

**Q.** With “ATACAAATCTCCGTCCATTAATGAAGAGAAGTCAAGTTGACGGAGTCACCTAGTGCAG” as the sequence, how does the binding signal read?
**A.** 8390 fluorescence intensity (a.u.)

**Q.** How did the binding signal turn out when “CGGCGAATGTCAATCATGTCGCATGCCTTCCTTTCTCTTCCGGAGTCACCTAGTGCAG” was run?
**A.** 19300 fluorescence intensity (a.u.)

**Q.** For “GGTTTGAATTTTAATATAATTTCTACAAAGAATTTAACCGCGGAGTCACCTAGTGCAG”, which binding signal is on record?
**A.** 5070 fluorescence intensity (a.u.)

**Q.** With “TAAATTTATAGTCAATTGTAGCATGAGCTCTAATAAACTGCGGAGTCACCTAGTGCAG” as the sequence, how does the binding signal read?
**A.** 4880 fluorescence intensity (a.u.)

**Q.** With “TAGGATTGCCAGGTCCTAATTGGCTGATTCTGCCACTAACCGGAGTCACCTAGTGCAG” as the sequence, how does the binding signal read?
**A.** 8240 fluorescence intensity (a.u.)

**Q.** How did the binding signal turn out when “AAATAATCTGTGTTTAATTTTCTTATATGTTTTCCCAGCACGGAGTCACCTAGTGCAG” was run?
**A.** 8510 fluorescence intensity (a.u.)

**Q.** With “TTTGTCTTACAAATTTAAATTTCGAGTTGAAAATTTTCAGCGGAGTCACCTAGTGCAG” as the sequence, how does the binding signal read?
**A.** 3760 fluorescence intensity (a.u.)

**Q.** How did the binding signal turn out when “AACAAGCCATTTAATTAATTTGGATGGTAGATCTGGAAGGCGGAGTCACCTAGTGCAG” was run?
**A.** 8810 fluorescence intensity (a.u.)

**Q.** Which binding signal does the source give for “TGATAATAATTATTTCTTGGTCTGTGGGTTAGGGATGGTTCGGAGTCACCTAGTGCAG” here?
**A.** 18500 fluorescence intensity (a.u.)

**Q.** How did the binding signal turn out when “TGAGATAAATAGCATTAAATTAAAGTATGAAATAGTGGTGCGGAGTCACCTAGTGCAG” was run?
**A.** 4470 fluorescence intensity (a.u.)

**Q.** “TATAATTTTATTTGCGATGTCAATACATGTAGTGGGTTGGCGGAGTCACCTAGTGCAG” was tested. Which binding signal did it give?
**A.** 12900 fluorescence intensity (a.u.)

**Q.** Which binding signal does the source give for “TGGTCAGATAGCTAGATTGATATCCCTCTCTCTCTCTCACCGGAGTCACCTAGTGCAG” here?
**A.** 13900 fluorescence intensity (a.u.)

**Q.** For “GAAATAATTAATTAATTTAATTAATTGATTGACACAAGTACGGAGTCACCTAGTGCAG”, which binding signal is on record?
**A.** 65000 fluorescence intensity (a.u.)

**Q.** With “GACATCACTTCTGATTGGGATTAAGGTAATGAGCCCTATCCGGAGTCACCTAGTGCAG” as the sequence, how does the binding signal read?
**A.** 10200 fluorescence intensity (a.u.)

**Q.** “ATGTCTGGTTATTTAAATTATTCTAGCTAACTTGATTATTCGGAGTCACCTAGTGCAG” was tested. Which binding signal did it give?
**A.** 4180 fluorescence intensity (a.u.)

**Q.** Which binding signal does the source give for “AACATAATTGCTCCATGATTTGACAATATGGTGCTACATTCGGAGTCACCTAGTGCAG” here?
**A.** 21700 fluorescence intensity (a.u.)

**Q.** How did the binding signal turn out when “AATAATATCTCTATAAATAGATAACTGAAGTAGCAACGCACGGAGTCACCTAGTGCAG” was run?
**A.** 3410 fluorescence intensity (a.u.)

**Q.** For “CCATTTAGATTATTAATTATGTTTTGAAAATCTCTACTTACGGAGTCACCTAGTGCAG”, which binding signal is on record?
**A.** 20100 fluorescence intensity (a.u.)
